Experimental data from the supplement of paper PMC12217912.
Some of the results follow. The full chains were built here from the parent and the listed change. Values near 0.05 are background.

B1: TEV protease; numbered along this chain (parent)
chain: MGESLFKGPRDYNPISSSICHLTNESDGHTTSLYGIGFGPFIITNKHLFRRNNGTLVVQSLHGVFKVKDTTTLQQHLVDGRDMIIIRMPKDFPPFPQKLKFREPQREERICLVTTNFQTKSMSSMVSDTSCTFPSGDGIFWKHWIQTKDGQCGSPLVSTRDGFIVGIHSASNFTNTNNYFTSVPKNFMELLTNQEAQQWVSGWRLNADSVLWGGHKVFMVKPEEPFQPVKEATQL

Variants of: B1
Assay: raw area under fraction-flipped curve 0-4 h after induction (AUC4h, not background-subtracted), DNA-recorder readout of cleavage of the substrate (dimensionless); higher = more cleavage of the substrate by the protease variant
Settings: temperature: 34 °C; time window: 0-4 h after rhamnose induction
Protocol: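 In vivo DNA recorder in E. coli TOP10(DE3) ΔrhaA at 34 °C. Each TEVp single-site mutant (parent TEVp 0) is paired with a single-site variant of the 7-mer TEVs (canonical ENLYFQ|S). The substrate sits between flexible linkers in a Bxb1-sfGFP-TEVs-SsrA fusion, so cleavage stabilises Bxb1 and speeds flipping of a recombination array, read by NGS. The value is the raw area under the fraction-flipped curve over 0-4 h after rhamnose induction (AUC4h), with ≥20 reads per time point. It is not background-subtracted; inactive controls average about 0.047.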
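Also: Bxb1 expression induced with 0.2% (w/v) L-rhamnose at OD600 near 0.5, cultures sampled hourly, flipped fraction per protease–substrate barcode pair counted by paired-end Illumina sequencing.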

Variant | area with substrate ENLYFAS | area with substrate ENLYFDS | area with substrate ENLYFFS | area with substrate ENLYFGS | area with substrate ENLYFHS | area with substrate ENLYFIS | area with substrate ENLYFKS | area with substrate ENLYFLS | area with substrate ENLYFMS | area with substrate ENLYFPS | area with substrate ENLYFRS | area with substrate ENLYFTS | area with substrate ENLYFYS | area with substrate ENLYFCS | area with substrate ENLYFES | area with substrate ENLYFNS | area with substrate ENLYFWS | area with substrate ENLYFSS | area with substrate ENLYFVS
S17I | 0.0628 | 0.0644 | 0.0646 | 0.0588 | 0.057 | 0.0532 | 0.0806 | 0.063 | 0.0586 | 0.0611 | 0.0375 | 0.0509 | 0.0476 | – | – | – | – | – | –
S17T | 0.0723 | – | 0.0567 | – | 0.0649 | 0.0507 | 0.0456 | 0.0517 | – | 0.0482 | 0.0538 | – | 0.06 | 0.062 | 0.0558 | 0.08 | 0.0622 | – | –
D27N | 0.0596 | – | 0.0545 | – | 0.0588 | 0.0607 | – | 0.0539 | 0.0637 | 0.0612 | – | 0.0581 | 0.0473 | 0.0765 | 0.0585 | 0.0489 | – | 0.0714 | 0.065
G37Y | 0.0377 | – | 0.0494 | – | 0.0396 | 0.0428 | – | 0.021 | 0.0479 | – | 0.0365 | – | 0.0603 | – | 0.0472 | 0.0575 | 0.0609 | – | –
L61P | 0.0613 | 0.0639 | 0.075 | 0.0548 | – | 0.061 | – | – | 0.0598 | 0.0453 | – | 0.0583 | 0.066 | 0.0599 | 0.0462 | – | – | – | 0.0624
L61R | 0.0705 | 0.0484 | 0.0737 | 0.0482 | 0.0531 | 0.0556 | 0.0613 | – | 0.0596 | 0.057 | 0.0637 | – | 0.0628 | 0.0933 | 0.0663 | 0.003 | 0.0456 | 0.0583 | 0.0599
S4Q | 0.0772 | – | 0.0702 | 0.0596 | 0.0475 | 0.0614 | 0.0435 | 0.0605 | – | 0.0573 | 0.0629 | 0.0646 | 0.0538 | 0.0612 | 0.0588 | 0.0569 | 0.0398 | 0.049 | 0.0682
T23D | 0.065 | – | 0.0592 | – | – | 0.0518 | – | – | 0.0698 | 0.0569 | – | – | – | 0.0327 | 0.0668 | 0.0566 | 0.0491 | 0.0673 | 0.0534
P40V | 0.0633 | 0.0546 | 0.0568 | – | – | 0.0511 | 0.0572 | – | 0.0509 | 0.0662 | 0.0518 | – | – | – | 0.0593 | 0.0824 | – | – | 0.0559
L22Q | 0.0494 | – | 0.0568 | 0.0514 | 0.0358 | 0.0348 | 0.044 | 0.0387 | 0.0314 | 0.0381 | 0.0362 | 0.0475 | – | 0.0506 | 0.048 | – | – | 0.0305 | –
I42K | 0.0487 | – | 0.0704 | 0.0673 | 0.0617 | 0.0302 | 0.0444 | – | 0.0511 | 0.053 | 0.0489 | 0.0476 | 0.0508 | 0.0416 | 0.0547 | 0.0427 | – | 0.0423 | –
V67F | 0.0678 | 0.06 | – | – | – | 0.0508 | 0.0566 | 0.0562 | 0.0628 | – | – | – | 0.0581 | 0.0624 | 0.0829 | 0.0618 | 0.0528 | 0.0522 | –
V67I | 0.0492 | – | 0.0694 | – | 0.0553 | – | 0.0573 | – | 0.083 | 0.0446 | – | 0.0576 | 0.068 | – | – | 0.0604 | – | 0.0633 | –
V67P | 0.04 | 0.0259 | 0.0474 | 0.051 | 0.0468 | 0.0468 | 0.0416 | 0.0162 | 0.0395 | 0.0371 | 0.0401 | 0.0223 | – | 0.0351 | 0.0511 | 0.0482 | 0.0491 | – | 0.0545
R10Y | 0.061 | – | 0.0777 | – | 0.0582 | 0.0577 | 0.0667 | 0.0539 | 0.0552 | 0.0699 | 0.082 | – | 0.057 | 0.0882 | 0.0569 | 0.0662 | – | 0.0652 | 0.0523
P9I | 0.0695 | – | 0.0614 | – | – | 0.0649 | – | 0.0564 | 0.0652 | 0.058 | 0.0509 | 0.057 | – | – | 0.0666 | 0.0736 | – | 0.0591 | –
T55D | 0.0519 | 0.065 | 0.0658 | – | 0.0578 | 0.0503 | 0.0671 | – | 0.0606 | – | 0.0424 | – | – | – | 0.0697 | 0.0611 | 0.0565 | – | –
T55A | 0.0102 | 0.0495 | 0.0671 | 0.0469 | – | 0.0472 | 0.0511 | – | 0.0514 | 0.0653 | 0.0524 | 0.0627 | 0.0427 | 0.0504 | 0.0596 | 0.0641 | – | 0.0534 | 0.0579
F6S | 0.0607 | – | 0.0736 | – | – | 0.0617 | – | – | – | 0.0922 | – | 0.0466 | – | 0.0423 | 0.0714 | 0.0623 | – | 0.058 | 0.0467
F6I | 0.0516 | – | – | – | – | 0.0466 | – | – | 0.0617 | 0.0552 | – | 0.0499 | – | – | 0.0662 | 0.0759 | – | 0.0541 | –
F6D | 0.0646 | 0.0582 | 0.0685 | – | – | 0.0749 | – | 0.0605 | 0.0512 | 0.0613 | 0.0513 | 0.0566 | 0.063 | – | 0.0703 | 0.0699 | – | 0.068 | 0.0568
F6P | 0.0491 | 0.0637 | – | 0.0552 | 0.0656 | 0.0592 | 0.0539 | – | – | – | – | 0.0512 | – | 0.0523 | 0.0745 | 0.07 | 0.0557 | 0.0672 | 0.0278
F6G | 0.0497 | – | 0.0659 | – | 0.0724 | 0.0466 | – | – | – | 0.0385 | – | – | – | – | – | 0.0654 | – | – | –
F6W | 0.0566 | – | 0.0675 | 0.0686 | 0.0426 | 0.0592 | 0.0581 | – | 0.0603 | 0.0627 | 0.0893 | – | 0.0588 | – | – | 0.0701 | 0.0564 | 0.0364 | 0.0438
D11C | 0.0425 | 0.0679 | 0.0757 | 0.0659 | – | 0.0561 | 0.0587 | 0.0611 | 0.0772 | 0.0544 | 0.0777 | 0.0562 | 0.0551 | 0.0502 | 0.0618 | 0.0465 | – | 0.0671 | 0.0534
F38H | 0.0558 | 0.066 | – | – | 0.0573 | 0.0502 | 0.0572 | 0.0613 | 0.0652 | 0.0507 | 0.0469 | 0.059 | 0.0665 | – | – | 0.0563 | – | 0.0646 | –
F38Q | 0.0423 | 0.0515 | 0.0561 | 0.0587 | 0.0554 | 0.0547 | 0.0583 | – | 0.0563 | 0.0565 | 0.0555 | 0.0662 | 0.0499 | – | 0.0522 | 0.0548 | 0.064 | 0.0506 | 0.0586
